± gives the uncertainty stated by the source. Over roughly 9,900 compounds, “viability index relative to DMSO control” has its median near 1; the lowest 2% begin near 0.85. This is one part of the list.
System: Plasmodium falciparum NF54 stage V gametocytes
Assay: viability index relative to DMSO control (fraction); higher = less gametocyte killing
Settings: 2.5 µM, incubation time: 72 h
In short: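 Viability index is the count of red-stained particles in a well divided by the plate mean of solvent-only wells. Particles of 20–70 µm2 were counted in one imaged field per well after one to two hours with 3 µl of 2.5 µM MitoTracker Red CMXRos and 0.13% saponin. Before staining, P. falciparum NF54 stage V gametocytes in serum-free medium (0.75% gametocytemia, 1.25% hematocrit, 10 µl, 1,536-well plates) were kept with compound at 2.5 µM for 72 hr at 37°C under low oxygen.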

[1] = library set: Broad Institute DOS

| Structure (SMILES) | viability index [1] | viability index (library set: Broad Institute Blood Stage) |
| --- | --- | --- |
| C/C=C/c1ccccc1[C@@H]1[C@@H](CO)N(C(=O)c2cccnc2)[C@H]1C#N | 1.07 ± 0.033 | – |
| C[C@H](CO)N1C[C@H](C)[C@H](CN(C)C(=O)c2ccc(N3CCN(C)CC3)cc2)OCc2cnnn2CCCC1=O | 1.08 ± 0.067 | – |
| CO[C@@H]1CC[C@H]2CCN(C)C(=O)[C@H](C)N(C)C(=O)c3cccc(C#N)c3OC[C@@H]1O2 | 1.11 ± 0.083 | – |
| CN1C(=O)c2cc(NS(=O)(=O)c3ccccc3F)ccc2OC[C@H]2O[C@@H](CC(=O)NC3Cc4ccccc4C3)CC[C@H]21 | 0.976 ± 0.089 | – |
| COc1ccc(NC(=O)N2CC[C@@H]3[C@H]2c2cc(C4=CCCCC4)ccc2N(C)[C@H]3CO)cc1 | 1.05 ± 0.095 | – |
| COc1ccc2c3c([nH]c2c1)[C@H](CO)N(Cc1ccccn1)C[C@]31CN(C1)C(=O)CC1CC1 | 1.03 ± 0.12 | – |
| O=S(=O)(c1ccc(F)cc1)N1CCCCN2[C@H](CO)[C@H](c3ccc(-c4cncnc4)cc3)[C@@H]2C1 | 1.11 ± 0.033 | – |
| O=S(=O)(c1ccccc1)N1CCCCN2[C@H](CO)[C@H](c3ccc(C#CC4CCCC4)cc3)[C@H]2C1 | 0.8253 ± 0.0077 | – |
| CN(C)C(=O)C[C@@H]1CC[C@@H]2[C@H](COC[C@H](O)CN2S(=O)(=O)c2ccccc2Cl)O1 | 1.1 ± 0.065 | – |
| COc1ccc2c3c([C@H](CO)N(C[C@]33CN(CC4CC4)C3)C(=O)Nc3c(C)noc3C)n(C)c2c1 | 0.993 ± 0.06 | – |
| C[C@@H]1CCCCO[C@@H](CN(C)Cc2ccc(C(F)(F)F)cc2)[C@@H](C)CN([C@@H](C)CO)C(=O)c2cc(NC(=O)Nc3cccc4ccccc34)ccc2O1 | 0.983 ± 0.12 | – |
| O=C(Cc1ccccc1)N1CC[C@@H]2[C@H](CO)Nc3ccc(C4=CCCCC4)cc3[C@@H]21 | 0.915 ± 0.036 | – |
| CO[C@H]1CN(C)C(=O)c2cc(NS(=O)(=O)c3cccc(Cl)c3)ccc2OC[C@H](C)NC[C@H]1C | 1.01 ± 0.041 | – |
| O=C(C[C@H]1C=C[C@@H](NC(=O)Nc2ccc3c(c2)OCO3)[C@H](CO)O1)NCCCN1CCOCC1 | 0.919 ± 0.074 | – |
| CCN(C[C@@H]1N[C@H](CO)[C@H]1c1ccccc1)C(=O)c1ccncc1 | 1.02 ± 0.0022 | – |
| COCC#Cc1ccc([C@H]2[C@@H](CO)N3CCCCN(Cc4cccnc4)C[C@H]23)cc1 | 1 ± 0.023 | – |
| C[C@@H]1CN([C@@H](C)CO)C(=O)CCCn2nncc2CO[C@H]1CN(C)C(=O)NC1CCCC1 | 0.9902 ± 0.0089 | – |
| O=C(C[C@@H]1CC[C@@H]2[C@H](COC[C@H](O)CN2C(=O)c2ccncc2)O1)Nc1ccc(-c2ccccc2)cc1 | 0.9775 ± 0.0015 | – |
| CN1C(=O)c2cc(NC(=O)c3cnccn3)ccc2OC[C@H]2O[C@@H](CC(=O)N[C@@H]3CCN(Cc4ccccc4)C3)CC[C@H]21 | 0.896 ± 0.1 | – |
| CCCC#Cc1cnc2c(c1)C(=O)N([C@H](C)CO)C[C@@H](C)[C@@H](CN(C)C(=O)Nc1cc(F)ccc1F)O2 | 1.06 ± 0.092 | – |
| Cc1noc(C)c1NC(=O)N(C)C[C@@H]1OCc2ccccc2-c2c(n(C)c3ccccc23)C(=O)N([C@@H](C)CO)C[C@@H]1C | 1.02 ± 0.13 | – |
| COc1cccc(CN2CCCCN3[C@H](CO)[C@@H](c4ccc(C#Cc5cccnc5)cc4)[C@@H]3C2)c1 | – | 0.841 ± 0.06 |
| CO[C@H]1CC[C@H]2CCOc3c(C#N)cccc3C(=O)N(C)C[C@@H](c3ccccc3)CC(=O)N(C)C[C@H]1O2 | 1.056 ± 0.0027 | – |

| Structure (SMILES) | viability index [1] | viability index (library set: Broad Institute Blood Stage) |
| --- | --- | --- |
| CCS(=O)(=O)N1CC(=O)N2[C@H](CO)[C@H](c3ccc(C4=CCCCC4)cc3)[C@@H]2C1 | 1.01 ± 0.11 | – |
| Cc1ccc(S(=O)(=O)N(C)C[C@@H]2Oc3c(NS(C)(=O)=O)cccc3C(=O)N([C@@H](C)CO)C[C@@H]2C)cc1 | 0.968 ± 0.0089 | – |
| CN1C(=O)c2cc(NC(=O)c3ccc(F)c(F)c3)ccc2OC[C@@H]2O[C@@H](CC(=O)N3CCCCC3)CC[C@@H]21 | 0.953 ± 0.13 | – |
| C[C@H]1CN([C@@H](C)CO)C(=O)CCCn2nncc2CO[C@H]1CN(C)C(=O)c1ccc(N2CCN(C)CC2)cc1 | 1.03 ± 0.018 | – |
| CC(C)(O)C#Cc1cccc(-c2nc(C(=O)N[C@@H]3CCN(Cc4ccccc4)C3)cc3c2[C@@H](CCO)N(S(=O)C(C)(C)C)C3)c1 (stereo not given in full) | 1.08 ± 0.05 | – |
| CO[C@H]1CN(C)C(=O)c2ccc(NC(=O)Nc3ccccc3Cl)cc2OC[C@H](C)NC[C@@H]1C | 0.989 ± 0.033 | – |
| CN1C(=O)c2cc(NC(=O)Cc3cccs3)ccc2OC[C@H]2O[C@H](CC(=O)NCCc3ccncc3)CC[C@H]21 | 1.11 ± 0.063 | – |
| COc1ccccc1C#Cc1ccc([C@@H]2[C@@H](C#N)N(C(=O)C3CCC3)[C@@H]2CO)cc1 | 1.15 ± 0.082 | – |
| COCC(=O)N1C[C@]2(CCN(Cc3cccnc3)CC2)c2c([C@H]1CO)n(C)c1cc(OC)ccc21 | 0.954 ± 0.033 | – |
| CO[C@@H]1CN(C)C(=O)c2cc(NS(=O)(=O)CC(F)(F)F)ccc2OC[C@H](C)NC[C@@H]1C | 1.05 ± 0.059 | – |
| O=C(Cc1ccccn1)N[C@H]1CC[C@@H](CCNS(=O)(=O)c2cccc(F)c2)O[C@H]1CO | 0.959 ± 0.081 | – |
| CN(C)C(=O)C[C@@H]1CC[C@@H]2[C@H](COc3ccc(NC(=O)C4CCCCC4)cc3C(=O)N2C)O1 | 1.05 ± 0.041 | – |
| CCC(=O)Nc1ccc2c(c1)C(=O)N(C)C[C@@H](OC)[C@H](C)CN(C(=O)Cc1cccnc1)[C@H](C)CO2 | 1.02 ± 0.068 | – |
| O=C(C[C@@H]1CC[C@H]2[C@@H](COC[C@H](O)CN2C(=O)c2ccncc2)O1)NCc1cc(F)cc(F)c1 | 1.07 ± 0.046 | – |
| Cc1noc(C)c1NC(=O)Nc1ccc2c(c1)C(=O)N([C@H](C)CO)C[C@@H](C)[C@H](CN(C)S(=O)(=O)c1ccc(F)cc1)O2 | 1.04 ± 0.08 | – |
| CO[C@H]1CN(C)C(=O)c2ccc(NC(=O)C3CC3)cc2OC[C@H](C)N(C(C)=O)C[C@H]1C | 1.05 ± 0.11 | – |
| COC(=O)C[C@H]1CC[C@H]2[C@@H](COc3ccc(NC(=O)Nc4c(C)noc4C)cc3C(=O)N2C)O1 | 1.02 ± 0.016 | – |
| CN1c2ccc(-c3ccccc3)cc2[C@@H]2[C@@H](CCN2C(=O)NC2CCCCC2)[C@H]1CO | 0.94 ± 0.12 | – |
| N#C[C@@H]1N[C@@H](CO)[C@@H]1c1ccc(C#CC2CCCCC2)cc1 | 0.997 ± 0.033 | – |
| O=C(c1cnccn1)N1CC(=O)N2[C@H](C1)[C@@H](c1ccc(C#CC3CC3)cc1)[C@@H]2CO | 1.12 ± 0.007 | – |
| COc1ccc2c3c([C@@H](CO)N(Cc4ccncc4)C[C@]33CN(C3)C(=O)Nc3cccc(F)c3)n(C)c2c1 | 1 ± 0.16 | – |
| C[C@H]1CN([C@@H](C)CO)C(=O)c2cc(-c3ccc(C#N)cc3)cnc2O[C@H]1CN(C)Cc1cccnc1 | 1.05 ± 0.021 | – |
